Binding data for one molecule are collected here from PMC5019376.

Positions count from the first letter of the chain named. Numbers in names are those of the source. Results are given in words; binding and its absence hold for the method and conditions named. Binding seen in cells or lysates may run through a third protein. Sequences can lack the tags named with a protein.

This assay addresses T1, TIR1 (wild type, epitope-tagged, expressed in Nicotiana) (Arabidopsis) (UniProt Q570C0).
T1 sequence: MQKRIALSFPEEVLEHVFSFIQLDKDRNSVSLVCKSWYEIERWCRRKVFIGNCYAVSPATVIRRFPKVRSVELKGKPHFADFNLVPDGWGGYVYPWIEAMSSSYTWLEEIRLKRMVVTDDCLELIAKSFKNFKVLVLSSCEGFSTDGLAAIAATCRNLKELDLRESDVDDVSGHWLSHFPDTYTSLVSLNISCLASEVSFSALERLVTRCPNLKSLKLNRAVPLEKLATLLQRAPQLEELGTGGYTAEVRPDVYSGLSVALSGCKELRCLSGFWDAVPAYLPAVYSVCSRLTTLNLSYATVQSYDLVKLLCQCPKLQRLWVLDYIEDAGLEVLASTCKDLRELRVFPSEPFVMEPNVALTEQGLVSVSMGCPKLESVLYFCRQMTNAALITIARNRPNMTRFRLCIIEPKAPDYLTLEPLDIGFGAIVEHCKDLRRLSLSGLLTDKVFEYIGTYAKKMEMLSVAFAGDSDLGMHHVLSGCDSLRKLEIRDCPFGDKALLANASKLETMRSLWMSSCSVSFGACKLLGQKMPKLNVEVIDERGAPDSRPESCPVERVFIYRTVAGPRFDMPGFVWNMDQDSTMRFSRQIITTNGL
The assay can be described thus: co-IP; HA tagged and Flag tagged TIR1 (wild type and mutant) co-expressed in Nicotiana leaves; extraction buffer 50 mM Tris pH 7.5, 150 mM NaCl, 100 mM MgCl2, 10% glycerol, 0.1% Nonidet P-40, 10 uM MG132; precipitated with anti-HA affinity gel, blots with anti-FLAG M2 and anti-HA.

B1: C140S-tir1 (epitope-tagged, expressed in Nicotiana for the co-IP) (protein, UniProt Q570C0 1-594)
chain: T1 sequence with C140S
For the molecule B1, the binding result is reported as “no binding”.
